Whole data set: some 33,000 sequences, median “E-score (-0.5 to 0.5)” near -0.054, cut for the highest 2% near 0.39. This is one part of the list.
Target: Ylr278c (UniProt Q05854)
Assay: PBM E-score (8-mer binding enrichment) (E-score (-0.5 to 0.5)); higher = stronger / more preferred TF binding; most listed sequences are background and not binding sites
Details: protein concentration: 200 nM; construct: GST-DNA-binding domain
Method in brief: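 E-scores (a modified Wilcoxon-Mann-Whitney statistic) were assigned by the Universal PBM Analysis Suite to every ungapped eight-base word pooled with its reverse complement. The input came from universal all-10-mer Agilent arrays made double-stranded by primer extension and probed with GST-tagged yeast transcription factors at about 100-200 nM. Fluorescent anti-GST detected bound protein, and masliner normalised the scans.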

Compared with GAGTCCAC, TATGAACA is lower in “PBM E-score” value: -0.0928 for the first, -0.233 for the second.

Going from GCGAGGCA to AAGACGCT, the “PBM E-score” value falls from 0.0382 to -0.26.

Compared with ATTTAATA, AAATGGAA is lower in “PBM E-score” value: 0.0823 for the first, -0.0257 for the second.

Compared with AAGAAGCA, GCGCTACC is lower in “PBM E-score” value: -0.0169 for the first, -0.0779 for the second.

First: TTATCAAA
Second: CGAGAAAA
The “PBM E-score” value of the first is lower: -0.0329 for the first, -0.0264 for the second.

Compared with CTAATCGC, GTGAGGTA is lower in “PBM E-score” value: 0.0688 for the first, -0.128 for the second.

Going from CAGCCACC to AGTAATAT, the “PBM E-score” value falls from 0.0671 to 0.0206.

Going from CTCAGACC to CACAAAAG, the “PBM E-score” value rises from -0.0578 to 0.0739.

Compared with CAGGGCTC, CCTCGACA is lower in “PBM E-score” value: -0.234 for the first, -0.257 for the second.

Going from CTGTCAGA to CTACAGTA, the “PBM E-score” value falls from -0.135 to -0.152.

Compared with CTGCAATC, TAAGATGA is lower in “PBM E-score” value: 0.0675 for the first, -0.288 for the second.

Going from ATCCGTAG to GACAATAC, the “PBM E-score” value falls from 0.134 to 0.0465.

Going from ATGGAGAA to AGTCCGAC, the “PBM E-score” value rises from 0.148 to 0.431.

Going from AGAACGGA to GGAAATAC, the “PBM E-score” value rises from 0.256 to 0.315.

First: AGCGTTAC
Second: CCCCAGAC
The “PBM E-score” value of the first is lower: -0.221 for the first, -0.18 for the second.

Compared with ACGCAACG, ATATAGAC is lower in “PBM E-score” value: 0.102 for the first, -0.134 for the second.

First: CACCGTAA
Second: AGTCGTTC
The “PBM E-score” value of the first is higher: -0.066 for the first, -0.247 for the second.

Going from AGATGGAT to ACTCAAAA, the “PBM E-score” value rises from -0.17 to -0.111.

First: CACCTCGA
Second: CCCAGGTC
The “PBM E-score” value of the first is higher: 0.0348 for the first, -0.278 for the second.

First: ATTCTTAC
Second: CCTGCGCC
The “PBM E-score” value of the first is lower: -0.0377 for the first, 0.0201 for the second.

Going from ATTAGAGG to AAAACTCG, the “PBM E-score” value rises from -0.113 to 0.0801.

Going from TCACTGAA to CATCTCTC, the “PBM E-score” value rises from 0.00301 to 0.142.

First: AGTAGTGG
Second: CGGGTCTA
The “PBM E-score” value of the first is lower: -0.0421 for the first, 0.0509 for the second.

Going from ACTGACCC to AGGCGGGC, the “PBM E-score” value rises from 0.044 to 0.204.

Compared with ACATGTCA, AATTAGAA is higher in “PBM E-score” value: -0.252 for the first, 0.0532 for the second.

Going from ATAAAGGC to ACCCGTAC, the “PBM E-score” value rises from -0.00968 to 0.0229.

Compared with AGAACTCA, CCAAACCA is higher in “PBM E-score” value: -0.137 for the first, -0.035 for the second.

Compared with GGCGCACC, AGACGTAT is lower in “PBM E-score” value: 0.00028 for the first, -0.0968 for the second.

First: AGTGATCA
Second: GTTATTAA
The “PBM E-score” value of the first is lower: -0.148 for the first, 0.152 for the second.

Compared with AACTGCAG, TAGGATCA is lower in “PBM E-score” value: -0.15 for the first, -0.199 for the second.

Compared with AACGCGAG, GACACTTA is lower in “PBM E-score” value: -0.0409 for the first, -0.143 for the second.

First: GCTGCAGA
Second: AAACACTT
The “PBM E-score” value of the first is higher: -0.111 for the first, -0.159 for the second.

Compared with ATGTCAAA, GCCCCGGA is higher in “PBM E-score” value: -0.0843 for the first, 0.439 for the second.

Going from GCAACCCA to ACACGCAA, the “PBM E-score” value rises from -0.292 to -0.151.

First: AGTTTGAT
Second: CAAAGTGA
The “PBM E-score” value of the first is higher: 0.0532 for the first, -0.0515 for the second.

Compared with CAACCCCA, CAGACACC is lower in “PBM E-score” value: 0.124 for the first, -0.112 for the second.

Compared with GGCAACGA, ACGATACG is lower in “PBM E-score” value: 0.0175 for the first, -0.323 for the second.

First: CGGTCTCC
Second: CGAAGGGA
The “PBM E-score” value of the first is higher: 0.304 for the first, -0.0862 for the second.

Compared with CTAGTCCA, CCCGACCG is higher in “PBM E-score” value: -0.0179 for the first, 0.324 for the second.

Compared with GAATCGGA, CACCGTGC is lower in “PBM E-score” value: 0.409 for the first, -0.0579 for the second.

Going from CCGCGGAA to CCCGGACC, the “PBM E-score” value falls from 0.414 to 0.376.

Going from CTACGAAA to CATAAAGA, the “PBM E-score” value rises from -0.206 to -0.176.

Going from AGCACCAC to GCCGTGCC, the “PBM E-score” value rises from -0.207 to 0.102.

Compared with TCAGTACA, AATACCGT is higher in “PBM E-score” value: -0.1 for the first, 0.211 for the second.

First: CTCTGACA
Second: ATGTTCCC
The “PBM E-score” value of the first is lower: -0.148 for the first, -0.0151 for the second.

Going from AACTGCAA to CCCCGTCA, the “PBM E-score” value rises from 0.0771 to 0.204.

Going from ACCCCTAG to ACGTATAA, the “PBM E-score” value rises from -0.27 to -0.188.

Going from ATTCCAGC to AGTCTTCC, the “PBM E-score” value rises from -0.104 to -0.0317.

Going from CGGATGCA to GGTGAGAC, the “PBM E-score” value falls from 0.2 to -0.184.

Compared with GAATTTGC, AGGAAAGC is lower in “PBM E-score” value: 0.199 for the first, -0.0801 for the second.

Going from ACTAAAGT to CGACAATC, the “PBM E-score” value rises from -0.236 to 0.171.

First: CTTGAAGC
Second: GAACTCAC
The “PBM E-score” value of the first is higher: -0.168 for the first, -0.219 for the second.

First: ATAGGCGC
Second: GCCCTGGA
The “PBM E-score” value of the first is higher: 0.118 for the first, -0.12 for the second.

Compared with CCCGATGC, ACACAAAC is lower in “PBM E-score” value: 0.282 for the first, 0.0115 for the second.

Compared with ACACCAGT, AGAACCCA is higher in “PBM E-score” value: -0.341 for the first, -0.304 for the second.

Compared with GAGGACCA, TATTTGGA is lower in “PBM E-score” value: -0.0565 for the first, -0.218 for the second.

First: GGCTATGA
Second: CATAGGAA
The “PBM E-score” value of the first is higher: -0.0494 for the first, -0.149 for the second.

First: CCCAGACA
Second: CCACGAGA
The “PBM E-score” value of the first is higher: -0.118 for the first, -0.136 for the second.

First: AGTCCTCC
Second: GCACTGAC
The “PBM E-score” value of the first is higher: 0.0204 for the first, -0.0988 for the second.

Going from CGCGCAAC to ATGGACCA, the “PBM E-score” value falls from 0.183 to -0.156.

First: AATCTAAT
Second: CGGCGGAA
The “PBM E-score” value of the first is lower: -0.0263 for the first, 0.438 for the second.

Going from GTGTGTTA to ATCCGTGC, the “PBM E-score” value rises from -0.171 to 0.125.

Compared with CTAGAGTA, ATCAATAG is lower in “PBM E-score” value: -0.0401 for the first, -0.218 for the second.

Going from CTCCCTCA to AACCCTTC, the “PBM E-score” value rises from -0.222 to -0.0623.

First: AATTCGTC
Second: AAATGGGG
The “PBM E-score” value of the first is higher: -0.0112 for the first, -0.252 for the second.

Compared with CCACGTTA, ATAGGACA is lower in “PBM E-score” value: -0.19 for the first, -0.311 for the second.

Going from ACTATCCA to CCGCAGCA, the “PBM E-score” value rises from -0.0732 to 0.219.

First: ATTACCTG
Second: CTTTTAAA
The “PBM E-score” value of the first is lower: -0.0781 for the first, 0.0549 for the second.

Going from AAGGCCGT to AGGCGCCG, the “PBM E-score” value rises from 0.142 to 0.206.

Going from AGTGTTAC to ACCGCATG, the “PBM E-score” value falls from 0.0451 to -0.0592.

Compared with ACGCTTGA, AAATGGCA is higher in “PBM E-score” value: -0.111 for the first, -0.0287 for the second.

Compared with GTAGTATA, AAGGCTTA is lower in “PBM E-score” value: -0.00386 for the first, -0.306 for the second.

Going from CATGCTCG to CAAAGGGC, the “PBM E-score” value rises from -0.194 to -0.0353.

Compared with ATGGGACG, ATGTTAAT is higher in “PBM E-score” value: -0.103 for the first, -0.0421 for the second.

Going from GAGGGACA to ATTCTAAA, the “PBM E-score” value rises from -0.0911 to -0.0463.

First: CCAGCCGC
Second: CCATTGAC
The “PBM E-score” value of the first is higher: 0.274 for the first, -0.0901 for the second.

Compared with AGATTAAA, TCCGTTCA is higher in “PBM E-score” value: 0.0622 for the first, 0.266 for the second.

Going from AGAGTACG to AACGTAAT, the “PBM E-score” value falls from -0.0578 to -0.223.

Going from AGGCTCGC to CGAAGGAA, the “PBM E-score” value falls from 0.0507 to -0.198.

First: ATCGGAGC
Second: ATAAGGGA
The “PBM E-score” value of the first is higher: 0.458 for the first, -0.139 for the second.

Going from AGACGTGA to CGTCATGC, the “PBM E-score” value rises from -0.109 to -0.0987.

Going from ATCAATGG to AACTGAGC, the “PBM E-score” value falls from 0.00091 to -0.00353.

Going from CCGATAGG to AGACATGG, the “PBM E-score” value falls from 0.231 to -0.179.

Compared with GTTTGTGA, AGTTGATC is higher in “PBM E-score” value: -0.19 for the first, -0.0079 for the second.

Compared with ACTGCCAA, AGGAGAAT is higher in “PBM E-score” value: -0.045 for the first, 0.0744 for the second.

First: AGAATATC
Second: ACGAACGA
The “PBM E-score” value of the first is higher: 0.105 for the first, -0.127 for the second.

Source: the supplement of paper PMC3334620
